System: P388
Conditions: mouse, in vivo, ip, 40 μg/kg/dose, Q1D × 9, female mice
From the text: Tumor system: P388; implant: IP 1.0 E + 06 cells; host: CD2FL female mice
median day of death: 10; schedule: IP, Q1D × 9 (1); vehicle: 5% ETO
+ distilled water; % ILS: % increase in life span over the controls.

## C=C(Cl)/C=C/C(O)CC(=C)CC1OC2C(C)C(OC(=O)CC3CC(OC(C)=O)CC4(CC(C)(O)CC(CC(=C)C(C)C(OC(C)=O)C(C)C(=O)CC5CC(OC)CC6(CC(O)CC(/C=C\CCCC7OC(O)(CC(O)C7C)C2O)O6)O5)O4)O3)C1O (stereo not shown) [spongistatin 1, reference compound]
  toxicity: toxic
